Measurements from the RNAGym collection of RNA variant scans (doi:10.7554/elife.90254).
The source gives no read counts; variants with many changes may rest on few reads.

B1: LINE1-mini (parent)
chain: GGCAGAGCUCAACACAGCGUGGCAAAGUGGCUGUGGCUAGACUGCC

Variants of: B1
Test: self-cleavage, relative activity (ratio to wild type); higher = more cleavage; in vitro, sequencing; the parent is a self-cleaving ribozyme

Variant	self-cleavage
G2U C15A G19C	0.02
G1A C3G G33C	0.17
C8A G40C G44A	0.2
C18A G21C C31A	0.07
G2U C10U C13A U34G C37A C45G	0.01
G1C A11U C13G C15A G27U U34G U38A	0
G1A A4C A11U C18G G22C C42U	0.02
A4G G7A C31A C45G	0.17
G2A A6C A11C A16C G29A G33U C37G U43G	0
C8U U20G G29A	0.44
C15U C31A C45A	0.02
G1U G5A G21C	0.07
G1U C3G A24G G27U G40A C42U	0.08
G1C A6U G17C	0.07
G2C A12G G21U	0.04
C8A G27C G30A	0.31
C18A C23G G30C G35U C37A	0
G19A U28A C46G	0.14
U9A A12U C42G C45A	0.12
A6U G7U A16C G21C G22C U38A	0.03
G2U A12G G40A	0.02

Variant	self-cleavage
G21U G30U C42U G44C	0.02
A24G G30A U32A G33U	0.03
A6U G21A G29U	1.29
G1U G2C A6G C18U U38A	0.01
C8G U9C G19A C23G G33U U34G	0.01
A14U A16C G17A G40C U43C	0.03
G7C C15G C23U G44C	0.17
G1U G2A C45U	1.37
C10G G21U G33A G36U U43G	0
C13U G17A G27C C31G C45A	0.08
C8U C10U C15G	0.08
G2A G7U A16U G22U	0.43
C8A C10A C15U G27U G30C G35A	0.04
U9G G22A C23G G35A G40U	0.01
C3A A4U U34G	0
G7A A14U U20G	0.42
A25U A39C C42A G44A	0.02
A6U G22A G36U	0.05
A4G A11U G21U	0.04
A12G C15G U20C A24G A41U	0.02
C31U U34C U38C	0.03

Variant	self-cleavage
C10A A11U A14U	0
G5A A12C C15U A26C G44A	0.04
G1A G27A G30U C45U	0.13
C8G G22A C31G G35A C45G	0.04
C13G G17A G29C U32G A39U U43C C46G	0.03
A16G G19U C37A	0.02
C3U G7U G27A G29U C31U C37U	0.01
C13A C15U G19A C42G	0.11
A6U C8G U9G A14G A26C U34C U43A G44U	0
C3U U34C A41U	0.05
A25G U38A A41U	0.03
C8A C18G G36C	0.23
G7U A11U G40C	0.01
G1U C18G G30U	0.18
U9A C15A C23G G29A C42G C45U	0.13
G5U G29U G30U G40A C46A	0.02
G2C C13U A14U G27C U38G G44A C45G	0.01
G21U G35U G40A C46U	0.21
G1C A11G A16G A39U	0.01
G7U U9C C13U	0.03
U20G G36C C37G A41U	0.09

Variant	self-cleavage
G5C A11G A14G C15U C18A G19A G30C C31A A41G	0
C18A A26G U38G	0
C3U G21C C31U C42U	0.07
C18U G27A G36U	0.04
G22C G27U C31G A41U	0.14
A11U C15A G19U G27C	0.01
C37U A39G C45U	0.03
A11U C13U C37G	0.01
G1A G5C G30C	0.14
C8A G35A C37A	0.12
A14C U20C A24U G29U G35U C46G	0.02
A11U A12C G21A	0.01
C23A G29C U32G U34A	0.07
A24U G30C G40U	0.22
C3G G5U G7U U20G G29C G30U U43G	0.01
G1U G27C U32G	0.29
A4C A14C A25C U28A	0
G2U A16C G29A C42U	0.07
C8U A14U U38A	0.22
G1U G2U A6G A39C	0.04
